Assay results published in PMC9587022 (2022).
These are yes or no findings as the source states them, for the method shown. In cells and extracts the contact can be indirect. Some results given as binding are weak or reduced against the parent protein; the word gives no strength. For some of these results: Sequences can lack the tags named with a protein.

Key:
[1] = molecular target: HA-tagged UL97, wild type, full length (pCGN-HA-UL97) (human cytomegalovirus (HCMV)) (UniProt P16788); test: co-IP; U-2 OS co-transfected with HA-UL97 (WT, fragment or mutant) and Flag-14-3-3; 48 h; IP buffer 50 mM Tris pH 7.5, 0.1 M NaCl, 1% NP40; anti-HA mAb-magnetic beads; washed with NET gel buffer; Western blot
[2] = molecular target: HA-tagged UL97 fragment C1 (279-707 aa) (human cytomegalovirus (HCMV)) (UniProt P16788); test: as above
[3] = molecular target: HA-tagged UL97 fragment C2 (487-707 aa) (human cytomegalovirus (HCMV)) (UniProt P16788); test: as above
[4] = molecular target: HA-tagged UL97 fragment N1 (1-278 aa) (human cytomegalovirus (HCMV)) (UniProt P16788); test: as above
[5] = molecular target: HA-tagged UL97 fragment N2 (1-486 aa) (human cytomegalovirus (HCMV)) (UniProt P16788); test: as above
[6] = molecular target: HA-tagged wild-type UL97 made by the recombinant HCMV rBAD-HA97 (strain AD169) (human cytomegalovirus (HCMV), strain AD169) (UniProt P16788); test: co-IP; serum-starved hTERT-BJ1 infected with rBAD-HA97 or rBAD-HA97-S13A, MOI 3, lysates at 4 dpi; IP with anti-HA mAb-magnetic beads; Western blot for endogenous 14-3-3
[7] = molecular target: 14-3-3 ε, endogenous (human (endogenous in HEK-293T, HFF2/T and hTERT-BJ1)) (UniProt P62258); test: co-IP; serum-starved hTERT-BJ1 infected with rBAD-HA97 or rBAD-HA97-S13A, MOI 3, lysates at 4 dpi; IP with anti-14-3-3 ε or θ antibody or rabbit IgG; Western blot
[8] = molecular target: T1, 14-3-3 θ, endogenous (human (endogenous in HEK-293T, HFF2/T and hTERT-BJ1)) (UniProt P27348); test: as above
T1 sequence: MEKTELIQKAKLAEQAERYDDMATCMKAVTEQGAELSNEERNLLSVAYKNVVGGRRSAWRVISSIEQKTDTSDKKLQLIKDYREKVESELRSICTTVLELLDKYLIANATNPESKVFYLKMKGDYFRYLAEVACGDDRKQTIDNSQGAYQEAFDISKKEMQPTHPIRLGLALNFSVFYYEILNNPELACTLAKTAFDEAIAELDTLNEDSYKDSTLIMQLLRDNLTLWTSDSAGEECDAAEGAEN

[9] = molecular target: 14-3-3 ε, endogenous (human (endogenous in HEK-293T, HFF2/T and hTERT-BJ1)) (UniProt P62258); test: co-IP; HFF2/T infected with HCMV AD169, MOI 3, 10% FBS; lysates at 48 and 72 hpi; IP with anti-14-3-3 ε, anti-14-3-3 θ or anti-UL97 antibodies or normal rabbit IgG, protein A/G-magnetic beads; Western blot
[10] = molecular target: T1, 14-3-3 θ, endogenous (human (endogenous in HEK-293T, HFF2/T and hTERT-BJ1)); test: as above

Question: “Flag-tagged 14-3-3σ (A147S/H180Y/I191C) (from UniProt P31947 1-248)” was tested. Which binding [1] did it give?
Answer: binds

Question: “Flag-tagged 14-3-3ζ (A134C) (from UniProt P63104 1-245)” was tested. Which binding [1] did it give?
Answer: binds

Question: For “Flag-tagged 14-3-3 β (from UniProt P31946 1-246)”, which binding [2] is on record?
Answer: no binding

Question: And the binding [3]?
Answer: no binding

Question: What about the binding [4] of the same molecule?
Answer: binds

Question: What about the binding [5] of the same molecule?
Answer: binds

Question: What about the binding [1] of the same molecule?
Answer: binds

Question: With “Flag-tagged 14-3-3β (S147A/Y180H/C191I) (from UniProt P31946 1-246)” as the molecule, how does the binding [1] read?
Answer: binds

Question: “Flag-tagged 14-3-3η (S150A/Y183H/C194I) (from UniProt Q04917 1-246)” was tested. Which binding [1] did it give?
Answer: binds

Question: How did the binding [1] turn out when “Flag-tagged 14-3-3ε (S148A/Y181H/C192I) (from UniProt P62258 1-255)” was run?
Answer: binds

Question: What does the source list for “Flag-tagged 14-3-3 ε (from UniProt P62258 1-255)”?
Answer: binding [2]: no binding; binding [3]: no binding; binding [4]: binds; binding [5]: binds; binding [1]: binds

Question: “14-3-3 ε, endogenous (from UniProt P62258 1-255)” was tested. Which binding [6] did it give?
Answer: binds

Question: Which results are given for “HA-tagged wild-type UL97 made by the recombinant HCMV rBAD-HA97 (strain AD169) (from UniProt P16788 1-707) (enzyme)”?
Answer: binding [7]: binds; binding [8]: binds

Question: With “Flag-tagged 14-3-3θ (C134A) (from UniProt P27348 1-245)” as the molecule, how does the binding [1] read?
Answer: binds

Question: Which binding [1] does the source give for “Flag-tagged 14-3-3γ (S150A/Y183H/C194I) (from UniProt P61981 1-247)” here?
Answer: binds

Question: With “UL97 of HCMV strain AD169 in infected fibroblasts (from UniProt P16788 1-707) (enzyme)” as the molecule, how does the binding [9] read?
Answer: binds

Question: And the binding [10]?
Answer: binds

Question: For “Flag-tagged 14-3-3 ζ (from UniProt P63104 1-245)”, which binding [1] is on record?
Answer: no binding

Question: For “Flag-tagged 14-3-3θ (S145A/Y178H/C189I) (from UniProt P27348 1-245)”, which binding [1] is on record?
Answer: binds

Question: With “14-3-3 protein beta/alpha, endogenous (from UniProt P31946 1-246)” as the molecule, how does the binding [6] read?
Answer: binds

B1: 14-3-3 protein eta, endogenous (protein, UniProt Q04917 1-246)
chain: MGDREQLLQRARLAEQAERYDDMASAMKAVTELNEPLSNEDRNLLSVAYKNVVGARRSSWRVISSIEQKTMADGNEKKLEKVKAYREKIEKELETVCNDVLSLLDKFLIKNCNDFQYESKVFYLKMKGDYYRYLAEVASGEKKNSVVEASEAAYKEAFEISKEQMQPTHPIRLGLALNFSVFYYEIQNAPEQACLLAKQAFDDAIAELDTLNEDSYKDSTLIMQLLRDNLTLWTSDQQDEEAGEGN
Question: How did the binding [6] turn out when B1 was run?
Answer: binds

B2: Flag-tagged 14-3-3 η (protein, UniProt Q04917 1-246)
chain: MGDREQLLQRARLAEQAERYDDMASAMKAVTELNEPLSNEDRNLLSVAYKNVVGARRSSWRVISSIEQKTMADGNEKKLEKVKAYREKIEKELETVCNDVLSLLDKFLIKNCNDFQYESKVFYLKMKGDYYRYLAEVASGEKKNSVVEASEAAYKEAFEISKEQMQPTHPIRLGLALNFSVFYYEIQNAPEQACLLAKQAFDDAIAELDTLNEDSYKDSTLIMQLLRDNLTLWTSDQQDEEAGEGN
Question: For B2, which binding [2] is on record?
Answer: no binding

Question: And the binding [3]?
Answer: no binding

Question: And the binding [4]?
Answer: binds

Question: What about the binding [5] of the same molecule?
Answer: binds

Question: What about the binding [1] of the same molecule?
Answer: binds

B3: 14-3-3 protein gamma, endogenous (protein, UniProt P61981 1-247)
chain: MVDREQLVQKARLAEQAERYDDMAAAMKNVTELNEPLSNEERNLLSVAYKNVVGARRSSWRVISSIEQKTSADGNEKKIEMVRAYREKIEKELEAVCQDVLSLLDNYLIKNCSETQYESKVFYLKMKGDYYRYLAEVATGEKRATVVESSEKAYSEAHEISKEHMQPTHPIRLGLALNYSVFYYEIQNAPEQACHLAKTAFDDAIAELDTLNEDSYKDSTLIMQLLRDNLTLWTSDQQDDDGGEGNN
Question: How did the binding [6] turn out when B3 was run?
Answer: binds

B4: Flag-tagged 14-3-3 γ (protein, UniProt P61981 1-247)
chain: MVDREQLVQKARLAEQAERYDDMAAAMKNVTELNEPLSNEERNLLSVAYKNVVGARRSSWRVISSIEQKTSADGNEKKIEMVRAYREKIEKELEAVCQDVLSLLDNYLIKNCSETQYESKVFYLKMKGDYYRYLAEVATGEKRATVVESSEKAYSEAHEISKEHMQPTHPIRLGLALNYSVFYYEIQNAPEQACHLAKTAFDDAIAELDTLNEDSYKDSTLIMQLLRDNLTLWTSDQQDDDGGEGNN
Question: B4 was tested. Which binding [2] did it give?
Answer: no binding

Question: What about the binding [3] of the same molecule?
Answer: no binding

Question: And the binding [4]?
Answer: binds

Question: And the binding [5]?
Answer: binds

Question: And the binding [1]?
Answer: binds

B5: 14-3-3 θ, endogenous (protein, UniProt P27348 1-245)
chain: MEKTELIQKAKLAEQAERYDDMATCMKAVTEQGAELSNEERNLLSVAYKNVVGGRRSAWRVISSIEQKTDTSDKKLQLIKDYREKVESELRSICTTVLELLDKYLIANATNPESKVFYLKMKGDYFRYLAEVACGDDRKQTIDNSQGAYQEAFDISKKEMQPTHPIRLGLALNFSVFYYEILNNPELACTLAKTAFDEAIAELDTLNEDSYKDSTLIMQLLRDNLTLWTSDSAGEECDAAEGAEN
Question: B5 was tested. Which binding [6] did it give?
Answer: binds

B6: Flag-tagged 14-3-3 θ (protein, UniProt P27348 1-245)
chain: MEKTELIQKAKLAEQAERYDDMATCMKAVTEQGAELSNEERNLLSVAYKNVVGGRRSAWRVISSIEQKTDTSDKKLQLIKDYREKVESELRSICTTVLELLDKYLIANATNPESKVFYLKMKGDYFRYLAEVACGDDRKQTIDNSQGAYQEAFDISKKEMQPTHPIRLGLALNFSVFYYEILNNPELACTLAKTAFDEAIAELDTLNEDSYKDSTLIMQLLRDNLTLWTSDSAGEECDAAEGAEN
Question: Which binding [2] does the source give for B6 here?
Answer: no binding

Question: And the binding [3]?
Answer: no binding

Question: What about the binding [4] of the same molecule?
Answer: binds

Question: What about the binding [5] of the same molecule?
Answer: binds

Question: And the binding [1]?
Answer: binds
